The text below walks through data of the supplement of paper PMC4604168 (melanoma cell lines).

The list shows a part of the results. Repeats are few or missing, and single values can be far off.
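Also: cell number obtained by counting DAPI-stained nuclei in high-throughput microscope images with image analysis software, screen run in 1,536-well plates.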

For the test, the system named is LOXIMVI. The experiment in a line: cell count relative to DMSO control; melanoma cells; higher = more viable cells. The note with it: library dose: low library concentration; 72 h.
`CCN(CC)CCNC(=O)c1c(C)[nH]c(/C=C2\C(=O)Nc3ccc(F)cc32)c1C` [sunitinib] + CNC(=O)c1cc(Oc2ccc(NC(=O)Nc3ccc(Cl)c(C(F)(F)F)c3)cc2)ccn1 [sorafenib] (first compound 0.4 µM, partner dose 0.4 µM) gave a cell count of 155%. In the case of `C[C@]1(O)C[C@@H](c2nc(-c3ccc4ccc(-c5ccccc5)nc4c3)c3c(N)nccn32)C1` + C=C(c1ccc(C(=O)O)cc1)c1cc2c(cc1C)C(C)(C)CCC2(C)C [Bexarotene] (first compound 0.4 µM, partner dose 2 µM) it was 101%.

`CCN(CC)CCNC(=O)c1c(C)[nH]c(/C=C2\C(=O)Nc3ccc(F)cc32)c1C` [sunitinib] + CN(c1ncccc1CNc1nc(Nc2ccc3c(c2)CC(=O)N3)ncc1C(F)(F)F)S(C)(=O)=O [PF562271] (first compound 0.4 µM, partner dose 0.08 µM) showed a cell count of 75.3%. Then `CCN(CC)CCNC(=O)c1c(C)[nH]c(/C=C2\C(=O)Nc3ccc(F)cc32)c1C` [sunitinib] + NC1(c2ccc(-c3nc4ccn5c(=O)[nH]nc5c4cc3-c3ccccc3)cc2)CCC1 [MK2206] (first compound 0.4 µM, partner dose 0.4 µM), with 166%; and `Cn1cnc2c(F)c(Nc3ccc(Br)cc3Cl)c(C(=O)NOCCO)cc21` [selumetinib] + CNC(=O)c1cc(Oc2ccc(NC(=O)Nc3ccc(Cl)c(C(F)(F)F)c3)cc2)ccn1 [sorafenib] (first compound 0.015 µM, partner dose 0.4 µM), with 171%. In the case of `Cn1cnc2c(F)c(Nc3ccc(Br)cc3Cl)c(C(=O)NOCCO)cc21` [selumetinib] + Cc1cc(Nc2cc(N3CCN(C)CC3)nc(/C=C/c3ccccc3)n2)n[nH]1 [ENMD2076] (first compound 0.015 µM, partner dose 0.04 µM) it was 103%; in that of `COc1cc([C@@H]2c3cc4c(cc3[C@@H](O[C@@H]3O[C@@H]5CO[C@@H](C)O[C@H]5[C@H](O)[C@H]3O)[C@H]3COC(=O)[C@H]23)OCO4)cc(OC)c1O` [etoposide] + Nc1nc(F)nc2c1ncn2[C@@H]1O[C@H](CO)[C@@H](O)[C@@H]1O [fludarabine] (first compound 0.02 µM, partner dose 0.2 µM), 113%; in that of `COc1cc([C@@H]2c3cc4c(cc3[C@@H](O[C@@H]3O[C@@H]5CO[C@@H](C)O[C@H]5[C@H](O)[C@H]3O)[C@H]3COC(=O)[C@H]23)OCO4)cc(OC)c1O` [etoposide] + Cn1sc(=O)n(Cc2ccccc2)c1=O [TDZD-8] (first compound 0.02 µM, partner dose 0.4 µM), 164%. Then `Cn1cnc2c(F)c(Nc3ccc(Br)cc3Cl)c(C(=O)NOCCO)cc21` [selumetinib] + CO[C@H]1C[C@@H]2CC[C@@H](C)[C@@](O)(O2)C(=O)C(=O)N2CCCC[C@H]2C(=O)O[C@H]([C@H](C)C[C@@H]2CC[C@@H](OCCO)[C@H](OC)C2)CC(=O)[C@H](C)/C=C(\C)[C@@H](O)[C@@H](OC)C(=O)[C@H](C)C[C@H](C)/C=C/C=C/C=C/1C [everolimus] (first compound 0.015 µM, partner dose 0.02 µM), with 82.5%. As for `Cn1cnc2c(F)c(Nc3ccc(Br)cc3Cl)c(C(=O)NOCCO)cc21` [selumetinib] + COc1ccc(C2=N[C@@H](c3ccc(Cl)cc3)[C@@H](c3ccc(Cl)cc3)N2C(=O)N2CCNC(=O)C2)c(OC(C)C)c1 [Nutlin-3] (first compound 0.015 µM, partner dose 0.1 µM), the cell count was 94.8%. In turn, `C[C@]1(O)C[C@@H](c2nc(-c3ccc4ccc(-c5ccccc5)nc4c3)c3c(N)nccn32)C1` + CN(c1ncccc1CNc1nc(Nc2ccc3c(c2)CC(=O)N3)ncc1C(F)(F)F)S(C)(=O)=O [PF562271] (first compound 0.4 µM, partner dose 0.08 µM) gave a cell count of 43.7%. In the case of `CCN(CC)CCNC(=O)c1c(C)[nH]c(/C=C2\C(=O)Nc3ccc(F)cc32)c1C` [sunitinib] + CC(=O)c1c(C)c2cnc(Nc3ccc(N4CCNCC4)cn3)nc2n(C2CCCC2)c1=O [palbociclib] (first compound 0.4 µM, partner dose 0.04 µM) it was 104%; in that of `C[C@]1(O)C[C@@H](c2nc(-c3ccc4ccc(-c5ccccc5)nc4c3)c3c(N)nccn32)C1` + CNC(=O)c1cc(Oc2ccc(NC(=O)Nc3ccc(Cl)c(C(F)(F)F)c3)cc2)ccn1 [sorafenib] (first compound 0.4 µM, partner dose 0.4 µM), 84.1%; in that of `Cn1cnc2c(F)c(Nc3ccc(Br)cc3Cl)c(C(=O)NOCCO)cc21` [selumetinib] + COc1ccc(Cl)c(Nc2nc3ccccc3nc2NS(=O)(=O)c2cccc(NC(=O)C(C)(C)N)c2)c1 [XL147] (first compound 0.015 µM, partner dose 0.8 µM), 83.2%.

Turning to `Cn1cnc2c(F)c(Nc3ccc(Br)cc3Cl)c(C(=O)NOCCO)cc21` [selumetinib] + CN(c1ncccc1CNc1nc(Nc2ccc3c(c2)CC(=O)N3)ncc1C(F)(F)F)S(C)(=O)=O [PF562271] (first compound 0.015 µM, partner dose 0.08 µM), the cell count was 101%. Then `C[C@]1(O)C[C@@H](c2nc(-c3ccc4ccc(-c5ccccc5)nc4c3)c3c(N)nccn32)C1` + CCCCCCCCc1ccc(CCC(N)(CO)CO)cc1 [fingolimod] (first compound 0.4 µM, partner dose 2 µM), with 96.6%.

Compound `Cn1cnc2c(F)c(Nc3ccc(Br)cc3Cl)c(C(=O)NOCCO)cc21` [selumetinib] + CCCCCCCCc1ccc(CCC(N)(CO)CO)cc1 [fingolimod] (first compound 0.015 µM, partner dose 2 µM) came in with a cell count of 103%. In the case of `CCN(CC)CCNC(=O)c1c(C)[nH]c(/C=C2\C(=O)Nc3ccc(F)cc32)c1C` [sunitinib] + CN1CCN(c2ccc3nc(-c4c(N)c5c(F)cccc5[nH]c4=O)[nH]c3c2)CC1 [Dovitinib] (first compound 0.4 µM, partner dose 0.1 µM) it was 125%; in that of `Cn1cnc2c(F)c(Nc3ccc(Br)cc3Cl)c(C(=O)NOCCO)cc21` [selumetinib] + Cn1c(Nc2ccc(C(F)(F)F)cc2)nc2cc(Oc3ccnc(-c4ncc(C(F)(F)F)[nH]4)c3)ccc21 [CHIR265] (first compound 0.015 µM, partner dose 0.08 µM), 100%; in that of `COc1cc([C@@H]2c3cc4c(cc3[C@@H](O[C@@H]3O[C@@H]5CO[C@@H](C)O[C@H]5[C@H](O)[C@H]3O)[C@H]3COC(=O)[C@H]23)OCO4)cc(OC)c1O` [etoposide] + O=C(Nc1cc(C(F)(F)F)cc(C(F)(F)F)c1)c1cc(Cl)ccc1O [IMD0354] (first compound 0.02 µM, partner dose 0.016 µM), 94.4%. In the case of `CCN(CC)CCNC(=O)c1c(C)[nH]c(/C=C2\C(=O)Nc3ccc(F)cc32)c1C` [sunitinib] + CC(=O)O[C@@]12CO[C@@H]1C[C@H](O)[C@@]1(C)C(=O)[C@H](O)C3=C(C)[C@@H](OC(=O)[C@H](O)[C@@H](NC(=O)OC(C)(C)C)c4ccccc4)C[C@@](O)([C@@H](OC(=O)c4ccccc4)[C@H]21)C3(C)C [Docetaxel] (first compound 0.4 µM, partner dose 0.0001 µM) it was 61.5%; in that of `C[C@]1(O)C[C@@H](c2nc(-c3ccc4ccc(-c5ccccc5)nc4c3)c3c(N)nccn32)C1` + CN1CCN(c2ccc3nc(-c4c(N)c5c(F)cccc5[nH]c4=O)[nH]c3c2)CC1 [Dovitinib] (first compound 0.4 µM, partner dose 0.1 µM), 95.4%; in that of `C[C@]1(O)C[C@@H](c2nc(-c3ccc4ccc(-c5ccccc5)nc4c3)c3c(N)nccn32)C1` + CC(C)C[C@H](NC(=O)[C@H](Cc1ccccc1)NC(=O)c1cnccn1)B(O)O [Bortezomib] (first compound 0.4 µM, partner dose 0.001 µM), 55.8%.
